This passage reports enrichment ratio results from a collection of fitness landscapes (doi:10.1126/science.1257360).

To fix the notation:
B1: PhoQ; a variant is named by its letters at X, in order, P23837 (parent)
chain: MKKLLRLFFPLSLRVRFLLATAAVVLVLSLAYGMVALIGYSVSFDKTTFRLLRGESNLFYTLAKWENNKLHVELPENIDKQSPTMTLIYDENGQLLWAQRDVPWLMKMIQPDWLKSNGFHEIEADVNDTSLLLSGDHSIQQQLQEVREDDDDAEMTHSVAVNVYPATSRMPKLTIVVVDTIPVELKSSYMVWSWFIYVLSANLLLVIPLLWVAAWWSLRPIEALAKEVRELEEHNRELLNPATTRELTSLVRNLNRLLKSERERYDKYRTTLTDLTHSLKTPLXXLQXXLRSLRSEKMSVSDAEPVMLEQISRISQQIGYYLHRASMRGGTLLSRELHPVAPLLDNLTSALNKVYQRKGVNISLDISPEISFVGEQNDFVEVMGNVLDNACKYCLEFVEISARQTDEHLYIVVEDDGPGIPLSKREVIFDRGQRVDTLRPGQGVGLAVAREITEQYEGKIVAGESMLGGARMEVIFGRQHSAPKDE

Some of the results follow.

The assay covers variants of B1. The experiment in a line: enrichment ratio after two sorts for PhoP signalling (ratio (wild type AVST 3.29)); higher = more functional. The settings on record: with PhoP (E. coli).
As for MGTD, the enrichment ratio was no more than 0.25. Regarding ICTQ, the enrichment ratio is no more than 0.25. Next, GYHC: no more than 0.25; MHDG: no more than 0.25; NCCG: no more than 0.25. As for MKIA, the enrichment ratio was no more than 0.25. Next, DMCL: no more than 0.25; GIKH: no more than 0.25; PLSD: 0.397. On to YYKK, for which the enrichment ratio is no more than 0.25. Regarding QRQR, the enrichment ratio was no more than 0.25. Next, MGHG: no more than 0.25; QKDT: no more than 0.25; WENK: no more than 0.25. Next, EMGP: no more than 0.25. Next, MAMC: no more than 0.25; IYMF: no more than 0.25; ICVY: no more than 0.25. Turning to FGAT, the enrichment ratio is no more than 0.25. Next, AFAK: no more than 0.25; RVRI: no more than 0.25; SQEN: no more than 0.25. In the case of SVYY, the enrichment ratio was 0.294. Next, SIQK: 2.81; APLM: no more than 0.25. As to NNKW, the enrichment ratio was no more than 0.25. Next, VWVN: no more than 0.25; LGQQ: no more than 0.25. Next, FGMA: 0.944; MPGT: no more than 0.25. Next, HDMG: no more than 0.25. Regarding WRSG, the enrichment ratio is no more than 0.25.

Regarding PDEG, the enrichment ratio is no more than 0.25. Next, FMWF: no more than 0.25; LHKD: no more than 0.25.

For the variant ENNP, the enrichment ratio was no more than 0.25. ARGI: the enrichment ratio was no more than 0.25. DRSV: the enrichment ratio was no more than 0.25. On to QVGK, for which the enrichment ratio is no more than 0.25. Next, RDNL: no more than 0.25; KPTG: no more than 0.25; LVWT: no more than 0.25. Next, ICSC: no more than 0.25. For the variant AWIC, the enrichment ratio is no more than 0.25. Next, FQFC: no more than 0.25; FKWG: no more than 0.25; DDSP: no more than 0.25. Next, TVCI: 0.444. Next, VCMW: no more than 0.25. In the case of NPTR, the enrichment ratio was no more than 0.25. Next, DHVM: no more than 0.25; DSGP: no more than 0.25. EGFY: the enrichment ratio was no more than 0.25. Next, MARC: no more than 0.25; DYIM: no more than 0.25. On to WVVD, for which the enrichment ratio is no more than 0.25.

Regarding GGTN, the enrichment ratio is no more than 0.25. Next, FFET: no more than 0.25; RRNG: no more than 0.25; RLFY: no more than 0.25.

ILMG: the enrichment ratio is no more than 0.25. LTMT: the enrichment ratio is no more than 0.25. Take FEHV: the enrichment ratio was no more than 0.25. Next, SGQI: 8; VYRF: no more than 0.25. Consider ASSG, for which the enrichment ratio is 9.05. With VARG, the enrichment ratio is no more than 0.25.

VRCS: the enrichment ratio was no more than 0.25.

On to GQCK, for which the enrichment ratio was no more than 0.25. Next, YNEF: no more than 0.25. For the variant DWGS, the enrichment ratio is no more than 0.25.

As to KMMG, the enrichment ratio was no more than 0.25. Next, EPAP: no more than 0.25; PNTA: no more than 0.25; MFAN: no more than 0.25. Next, AHKP: no more than 0.25; ERGP: no more than 0.25. In the case of GDYF, the enrichment ratio is no more than 0.25. In the case of LVVL, the enrichment ratio was no more than 0.25.

In the case of MDVK, the enrichment ratio is no more than 0.25. With IAMQ, the enrichment ratio was 7.36. As for HYWF, the enrichment ratio was no more than 0.25. As to KCMS, the enrichment ratio was no more than 0.25.

Take FPFW: the enrichment ratio was no more than 0.25. Next, PCCL: no more than 0.25. Next, QVCS: no more than 0.25; EHIM: no more than 0.25; VIGQ: no more than 0.25.

As for WEID, the enrichment ratio is no more than 0.25. As to VHAA, the enrichment ratio is no more than 0.25. Next, FELN: 13.7; IIPV: no more than 0.25; RPYC: no more than 0.25. Next, YQRP: no more than 0.25; FTKV: no more than 0.25. WVSW: the enrichment ratio was no more than 0.25.

In the case of PHRL, the enrichment ratio is no more than 0.25. Next, STVV: 9.33. Next, WQLH: no more than 0.25. Next, VDDI: no more than 0.25. LIHP: the enrichment ratio amounted to 0.285. For RSWD, the enrichment ratio is no more than 0.25. Next, WEPW: no more than 0.25; RSSP: no more than 0.25; VCAN: no more than 0.25. Next, GDPQ: no more than 0.25; KNVK: no more than 0.25; NEGL: no more than 0.25. Next, EPIH: no more than 0.25; WRFE: no more than 0.25. As to GEYG, the enrichment ratio is no more than 0.25. Consider HRAQ, for which the enrichment ratio was no more than 0.25.

For the variant WCPE, the enrichment ratio is no more than 0.25. With SNFY, the enrichment ratio is no more than 0.25. Next, LVAF: no more than 0.25; HKDC: no more than 0.25. As to LPPS, the enrichment ratio is no more than 0.25.

In the case of LPEK, the enrichment ratio was no more than 0.25. Take NRIF: the enrichment ratio was no more than 0.25.

As for PWPQ, the enrichment ratio is no more than 0.25. Next, NMHA: no more than 0.25. Turning to PQPS, the enrichment ratio is no more than 0.25. With GGGR, the enrichment ratio was no more than 0.25. Consider TGES, for which the enrichment ratio was no more than 0.25. Next, WEFQ: no more than 0.25.

PGYS: the enrichment ratio is no more than 0.25.

Consider QFHG, for which the enrichment ratio was no more than 0.25. Turning to ETNP, the enrichment ratio is no more than 0.25. On to NGGY, for which the enrichment ratio is no more than 0.25.

In the case of LRSR, the enrichment ratio was no more than 0.25. Next, AKVD: no more than 0.25; AHSN: no more than 0.25. Next, LNAW: no more than 0.25; NYTG: no more than 0.25; YCMA: 0.422. FFDA: the enrichment ratio was no more than 0.25.

With YTWS, the enrichment ratio is no more than 0.25.

For the variant FRGL, the enrichment ratio is no more than 0.25. YEMF: the enrichment ratio was no more than 0.25. Turning to NEAC, the enrichment ratio was determined as 15.1. Regarding PAED, the enrichment ratio was no more than 0.25. Next, CLLR: no more than 0.25; FLLY: no more than 0.25. Turning to SVYD, the enrichment ratio is no more than 0.25. Next, RYSG: no more than 0.25; RDLN: no more than 0.25; NGMH: no more than 0.25. Next, IKKF: no more than 0.25. Next, HKHL: no more than 0.25; HGHG: no more than 0.25.

With ESKQ, the enrichment ratio is no more than 0.25.

In the case of YGWS, the enrichment ratio is no more than 0.25.

With EGAR, the enrichment ratio is no more than 0.25.
